The list shows a part of the results.

This assay has as its system PfHDP1 homeodomain (GST-tagged). Kind of assay: gcPBM binding intensity (ln(normalized median fluorescence intensity)); higher = stronger DNA binding. The essentials:
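Binding intensity is the highest Masliner-normalised natural-log median intensity over replicate spots in either probe orientation. To obtain it, GST-tagged P. falciparum DNA-binding domains made in E. coli were incubated for 1 h on an Agilent 4 × 180k array of primer-extended double-stranded 36-bp intergenic genomic probes plus negative controls. Detection used Alexa488 anti-GST antibody with scanning at 488 nm.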
Turning to “AAATAATTTGTTGACACACACACACCCATACAGATA [CACACA_site5291]”, the “gcPBM binding intensity (ln)” value was 7.13.

Turning to TTTTGACCATATCTGTTGCACTTTTGTGCTATTCGA, the “gcPBM binding intensity (ln)” value was determined as 8.05.

With “CATTATGTCGTAAATACACACATACATATACATACA [CACACA_site8383]”, the “gcPBM binding intensity (ln)” value worked out at 6.84.

For “AAGGATCACAGACAAACACACATATATATATATATA [CACACA_site4469]”, the “gcPBM binding intensity (ln)” value was found to be 9.43.

In the case of “ATTAATTCGTTTTGTACACACATAATGAGTAATTTA [CACACA_site7118]”, the “gcPBM binding intensity (ln)” value turned out to be 6.55.

Take “TAAATTTTTTCCTCCTGTACTTATTATATTTTTTTG [XGTACX_site1572]”: the “gcPBM binding intensity (ln)” value was 6.49.

For “TATGAAATTATAATTACACACAGGAAAATAAAATGT [CACACA_site1517]”, the “gcPBM binding intensity (ln)” value turned out to be 7.08.

Take “ATATAATAATAAGGCACACAAATTAAAATATAAAAA [CACACA_site3710]”: the “gcPBM binding intensity (ln)” value stood at 6.65.

For the sequence “TATATATGCATATACATACACACATAACACATACGT [CACACA_site3833]”, the “gcPBM binding intensity (ln)” value was determined as 7.16.

Turning to “AATGTTTTATTTTGAAGTACATTTAAGAATTTTTTA [XGTACX_site7814]”, the “gcPBM binding intensity (ln)” value was found to be 6.06.

Consider “TTATGTTCTTTAAAACCACACACCCCCCAACCCCCC [CACACA_site8742]”, for which the “gcPBM binding intensity (ln)” value was determined as 8.95.

For the sequence “TGTAGATTTTGTAACACACACATATATATACATATA [CACACA_site2405]”, the “gcPBM binding intensity (ln)” value was found to be 6.6.

As to “GTACACATATAGTAATAATTTTATTATATTTTTTTG [CACACA_negctrl_site843]”, the “gcPBM binding intensity (ln)” value worked out at 6.46.

As to “ATTTTAATATAAAATACACACTACTATTATAAATAT [CACACA_site4917]”, the “gcPBM binding intensity (ln)” value was 6.29.

Take “ATTCTTATTTAAAGGTGTACTCTTAAACAGATTTTA [XGTACX_site3526]”: the “gcPBM binding intensity (ln)” value was 6.12.

Regarding “CACCCCCACAGACACACACACACACCCACATATATA [CACACA_site365]”, the “gcPBM binding intensity (ln)” value came to 6.96.

With “TTCATAAAATGATATTGTACAAATAAATAATAGTAT [XGTACX_site819]”, the “gcPBM binding intensity (ln)” value came to 7.11.

Turning to “AGATTTAAATTTATATGTACATAATATGGGCGTATA [XGTACX_site6631]”, the “gcPBM binding intensity (ln)” value came out at 7.08.

Take GGTCTTCTTAATATACTGCACTGTATACGTATATAA: the “gcPBM binding intensity (ln)” value is 8.05.

Turning to “ATTATATACATATATATACACACGTAGTTTCTATTT [CACACA_site8697]”, the “gcPBM binding intensity (ln)” value worked out at 6.39.

As for “ATATATATATATAAATGTACATTTTTCAATAGTTTT [XGTACX_site7449]”, the “gcPBM binding intensity (ln)” value is 8.98.

For the sequence “TATAAATAAATAGATACACACATATATATAAATACA [CACACA_site155]”, the “gcPBM binding intensity (ln)” value was found to be 6.51.

For “TACTTTTTATTTTCTTGTACTTAATTGTCCAGATTT [XGTACX_site4334]”, the “gcPBM binding intensity (ln)” value amounted to 6.68.

With “CTTATTATTATATGGGTGCTCATATTTTTCTTTTTT [GTGCAC_site9723]”, the “gcPBM binding intensity (ln)” value was determined as 6.67.

Consider “ACAAACATTAGGGAAGCATGCAATATTTTTTTACAT [TGCATGCA_site372]”, for which the “gcPBM binding intensity (ln)” value is 6.68.

On to “AGTTGTTTTAATAATGCATGTTATTTTATTTTAATA [TGCATGCA_site168]”, for which the “gcPBM binding intensity (ln)” value was 6.67.

Consider “GTATATATATATGTATATATTTTATTTTATTTTTAT [CACACA_negctrl_site1439]”, for which the “gcPBM binding intensity (ln)” value was 6.26.

For “TATATATATAGACACACACACACATATATATATATA [CACACA_site9366]”, the “gcPBM binding intensity (ln)” value amounted to 9.14.

For the sequence “TAGATATATAGACACACACACATTAATACCTATATT [CACACA_site7605]”, the “gcPBM binding intensity (ln)” value came to 6.83.

With “TGTCATTTAATTTTTTGTACGAAAAAAACATATAAA [XGTACX_site4952]”, the “gcPBM binding intensity (ln)” value worked out at 6.64.

As for “AAAAAAAAAAAGCACACACACATATGAGTATATATA [CACACA_site4683]”, the “gcPBM binding intensity (ln)” value came out at 6.91.

For “TAATATCATTTATGTAGTACTATAACAAGAACTATA [XGTACX_site3618]”, the “gcPBM binding intensity (ln)” value amounted to 6.14.

Regarding “GCTTATATAAAAAGTTGTACAACCGAATCTTTTACA [XGTACX_site2119]”, the “gcPBM binding intensity (ln)” value worked out at 6.92.

For “TACACAAGCAGACACACACACATATATATATATATA [CACACA_site1270]”, the “gcPBM binding intensity (ln)” value was 9.36.

Consider “AATGTAAAAGTAAACACACACATATATAAATACATA [CACACA_site5386]”, for which the “gcPBM binding intensity (ln)” value was 6.7.

As to “GTACATAGATTGTACATACACACCTATATAAATATC [CACACA_site3225]”, the “gcPBM binding intensity (ln)” value was 6.51.

“TTTTTTTTGTTCTATACAATTATAAAAATAAAATAT [XGTACX_negctrl_site53]”: the “gcPBM binding intensity (ln)” value turned out to be 6.07.

Regarding “AATATATGGTTCCATGATATTAAATTCAATTTAATG [CACACA_negctrl_site605]”, the “gcPBM binding intensity (ln)” value is 6.08.

In the case of “AATTAAAAAAAATACACACACACATACACATATATA [CACACA_site3298]”, the “gcPBM binding intensity (ln)” value was determined as 7.1.

For the sequence “CGTATTTATATAATTACACACCATATTATAATTATT [CACACA_site3760]”, the “gcPBM binding intensity (ln)” value came to 6.85.

Turning to “CCAAAAAAAAAAAAAAGTACATAAAAACAAGAGAAT [XGTACX_site3037]”, the “gcPBM binding intensity (ln)” value was 6.6.

For “AAGGGGTAAAGAAAAACACACAAAAAATAAAAATAT [CACACA_site361]”, the “gcPBM binding intensity (ln)” value was determined as 6.78.

As to “AAGAGAAAAATATATACACACACATAAATATATACA [CACACA_site8573]”, the “gcPBM binding intensity (ln)” value came out at 6.77.

On to TGCATACTTTTGTAAGTGCATAAAATCGTACCATGC, for which the “gcPBM binding intensity (ln)” value is 8.83.

For the sequence “GAAATAATTCGATGTGCATGTAACGTTTCCCCAAAG [TGCATGCA_site122]”, the “gcPBM binding intensity (ln)” value worked out at 8.71.

Values taken from the supplement of paper PMC11417369.
